In the supplement of paper PMC7826260:
This is one part of the list. Viral Rep nickase domains cut single-stranded DNA in vitro (1 h at 37 °C, 3 µM enzyme); the outer parts of the 90-letter strands are left off. Uncut reads are compared with the no-enzyme pool on a log2 scale; uncut sequences lie near 0, cut ones below; no hit call is given. Because reads are shares of a total, they shift together; where an enzyme cuts many sequences, the uncut ones exceed 0.

How the values were obtained:
Assay in all cases: uncleaved DNA left, log2 of reads against the no-enzyme library (log2 ratio); higher = less cleavage (more negative = more Rep cleavage of the k-mer); sequences stand for … in CTCGTCCG…ACCGGAGA
[1] = system: T1, Rep nickase domain of Muscovy duck circovirus
T1 sequence (protein, residues 1-111, tag omitted): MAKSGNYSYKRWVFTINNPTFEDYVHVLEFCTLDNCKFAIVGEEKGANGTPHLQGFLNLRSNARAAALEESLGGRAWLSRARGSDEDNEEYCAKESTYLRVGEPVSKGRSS
Procedure: (§1)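 A pool of 90-nt single-stranded DNAs with seven random bases just before the constant AC of the nick site (name = the seven bases) was cut by 3 µM recombinant His6-SUMO-tagged Rep nickase domain (300 nM DNA, 50 mM HEPES pH 8.0, 50 mM NaCl, 1 mM MnCl2, 1 h, 37 °C, three replicates). Uncut DNA was amplified and sequenced.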

[2] = system: T2, Rep nickase domain of banana bunchy top virus
T2 sequence (protein, residues 1-94, tag omitted): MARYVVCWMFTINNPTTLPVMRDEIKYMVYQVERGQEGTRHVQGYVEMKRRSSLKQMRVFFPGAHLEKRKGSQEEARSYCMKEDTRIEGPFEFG
Procedure: as §1

[3] = system: T3, Rep nickase domain of cabbage leaf curl virus
T3 sequence (protein, residues 1-116, tag omitted): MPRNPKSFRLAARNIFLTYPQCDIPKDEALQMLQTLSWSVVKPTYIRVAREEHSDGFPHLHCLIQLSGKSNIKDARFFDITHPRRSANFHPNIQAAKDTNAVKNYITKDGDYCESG
Procedure: as §1

[4] = system: T4, Rep nickase domain of chickpea chlorotic dwarf virus
T4 sequence (protein, residues 1-124, tag omitted): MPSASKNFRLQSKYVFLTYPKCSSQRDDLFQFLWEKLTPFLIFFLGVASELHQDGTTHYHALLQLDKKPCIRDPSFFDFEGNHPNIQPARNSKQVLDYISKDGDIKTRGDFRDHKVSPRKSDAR
Procedure: as §1

[5] = system: T5, Rep nickase domain of faba bean necrotic yellows virus
T5 sequence (protein, residues 1-98, tag omitted): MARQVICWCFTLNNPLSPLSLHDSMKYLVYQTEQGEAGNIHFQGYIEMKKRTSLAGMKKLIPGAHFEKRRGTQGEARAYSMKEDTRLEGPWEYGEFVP
Procedure: as §1

[6] = system: T6, Rep nickase domain of maize striate mosaic virus
T6 sequence (protein, residues 1-117, tag omitted): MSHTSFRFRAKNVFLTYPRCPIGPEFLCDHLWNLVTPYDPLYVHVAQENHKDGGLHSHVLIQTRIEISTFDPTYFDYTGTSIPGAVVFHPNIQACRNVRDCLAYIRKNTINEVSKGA
Procedure: as §1

[7] = system: T7, Rep nickase domain of porcine circovirus 2
T7 sequence (protein, residues 2-116, tag omitted): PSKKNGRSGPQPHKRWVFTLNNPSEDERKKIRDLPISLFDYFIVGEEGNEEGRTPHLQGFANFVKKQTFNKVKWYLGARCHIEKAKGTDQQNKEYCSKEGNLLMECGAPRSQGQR
Procedure: as §1

[8] = system: T8, Rep nickase domain of tomato golden mosaic virus
T8 sequence (protein, residues 1-124, tag omitted): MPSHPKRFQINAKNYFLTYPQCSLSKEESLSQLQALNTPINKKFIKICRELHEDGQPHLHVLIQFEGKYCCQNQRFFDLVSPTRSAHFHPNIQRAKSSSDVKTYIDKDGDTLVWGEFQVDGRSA
Procedure: as §1

[9] = system: T9, Rep nickase domain of tomato yellow leaf curl virus
T9 sequence (protein, residues 1-136, tag omitted): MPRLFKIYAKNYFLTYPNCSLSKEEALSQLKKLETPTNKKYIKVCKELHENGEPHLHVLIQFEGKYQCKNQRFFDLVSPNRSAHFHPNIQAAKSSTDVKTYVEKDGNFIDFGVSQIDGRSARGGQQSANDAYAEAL
Procedure: as §1

[10] = system: T10, Rep nickase domain of wheat dwarf virus
T10 sequence (protein, residues 1-137, tag omitted): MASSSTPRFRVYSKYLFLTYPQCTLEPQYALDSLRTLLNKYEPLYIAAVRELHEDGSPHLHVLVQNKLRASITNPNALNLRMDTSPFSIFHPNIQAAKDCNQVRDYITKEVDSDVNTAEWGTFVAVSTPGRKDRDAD
Procedure: as §1

Sequence	uncleaved DNA left (log2) [1]	uncleaved DNA left (log2) [2]	uncleaved DNA left (log2) [3]	uncleaved DNA left (log2) [4]	uncleaved DNA left (log2) [5]	uncleaved DNA left (log2) [6]	uncleaved DNA left (log2) [7]	uncleaved DNA left (log2) [8]	uncleaved DNA left (log2) [9]	uncleaved DNA left (log2) [10]
ATTTTCT	-3.06	-1.58	-0.185	-2.5	0.0678	-0.769	-3.47	-0.052	0.1	-0.0499
CTAAGAT	0.11	0.0305	-1.67	-2.22	0.116	0.668	0.209	-0.0373	0.0237	-0.108
TGGGTTA	0.0665	0.0165	0.491	0.889	-0.0465	1.65	-0.0326	-0.0359	-0.0447	0.0181
CAGGTAG	0.0699	0.0381	-0.41	-0.428	0.177	-0.935	0.337	0.103	0.126	0.0392
TGAACTG	0.0563	0.0844	-0.00353	0.639	0.0135	1.53	0.0881	0.00786	0.00482	0.129
TTCTGTT	-3.17	-0.686	-2.25	-2.55	-0.239	-0.884	-3.66	-0.304	-0.0273	-0.636
GAATATA	-0.109	0.0657	-0.0995	-1.57	0.0502	0.893	-0.663	0.0592	0.0231	0.00697
CCGGGTA	0.182	0.00978	0.376	0.574	0.0284	1.63	0.0589	0.0461	0.136	0.0623
GTTAACT	0.0702	0.0797	0.248	0.36	0.0516	1.66	-0.0764	0.127	0.0894	0.173
TACATTT	-0.505	-0.977	-3.26	-3.19	-0.118	-1.09	-3.55	-0.434	-0.149	-0.642
CATTTGA	-0.0914	-0.173	-0.326	-0.783	-0.0907	-1.2	-0.0857	-0.0418	-0.0434	-0.0806
CGGGATT	0.00817	-0.0901	0.635	1.53	-0.0886	1.86	0.0147	0.057	0.00319	0.0452
GCTCTCA	-0.111	0.0764	0.179	-0.0468	0.0572	0.253	-0.0117	0.000776	0.0609	0.0665
TGAAAAA	0.0198	0.199	0.222	0.142	-0.0105	-0.238	0.191	0.0857	0.0815	0.162
CAAGAGA	0.139	0.0516	0.295	0.461	0.145	-0.507	0.078	0.0898	0.0118	0.105
CGCCCCC	-0.0895	-0.187	0.0448	-0.00842	-0.179	0.106	-0.259	-0.173	-0.101	-0.0483
AGCACAG	0.0703	0.188	0.0781	0.456	-0.0243	0.989	0.0963	0.082	0.025	0.135
GCGCATG	-0.0219	-0.073	-0.0952	0.311	-0.0521	0.949	0.0672	-0.0324	-0.0892	-0.0873
AACTGGA	0.0191	0.112	0.0326	0.27	-0.0568	0.251	-1.03	0.107	-0.127	-0.0102
GCTTCGT	-0.007	-0.0762	-0.246	-0.207	-0.00803	-0.752	-0.099	-0.0561	0.0966	-0.0996
TATTCAC	-1.07	-0.294	0.0974	-0.356	-0.0852	-0.471	-0.554	-0.174	-0.0392	-0.0447
CATAAAT	-0.129	-0.321	-0.209	-1.56	-0.0222	-0.637	-1.17	0.091	-0.0602	-0.0543
GAATCTA	0.00913	0.0573	-0.424	-1.66	-0.0362	0.618	-0.431	-0.0514	0.0146	-0.161
ACCAGCG	-0.0319	0.091	0.343	1.78	0.00755	1.7	0.213	-0.00354	0.106	-0.0112
AGAGCGG	0.0878	0.118	0.0332	0.463	0.131	0.53	0.1	0.13	-0.177	0.0418
CGCATTC	0.0106	-0.0195	-0.32	-0.181	-0.0687	-0.947	0.0557	-0.145	-0.00557	-0.0445
GCAAAAG	0.00692	-0.0652	-0.752	-0.355	0.0577	-1.1	0.233	0.0464	-0.00302	-0.0732
TTGCGTT	-0.00898	-0.088	-0.803	0.0998	0.139	-0.586	0.0161	-0.0729	-0.0219	-0.22
ACAGAAG	0.0726	0.03	-0.554	0.337	0.187	-0.402	0.241	-0.0412	0.089	0.0512
ATTGAAA	0.126	0.00392	-0.00354	0.183	-1.57e-05	-0.516	0.0542	0.023	-0.0379	0.0495
